Experimental findings from article PMC9911399, “Two distinct binding modes provide the RNA-binding protein RbFox with extraordinary sequence specificity” are described below.

Where a chain is given by its changes, count along the chain named. Some of the results follow.

First the molecules themselves.
B1: AACGGUC (DNA:RNA)
RNA: GGGAGACCGGAAUUCAGAUUGUCCAACGGUCUUAAAUCCCGUCGUAGCCACCA
DNA 1: CAATCTGAATTCCGGTCTCCC
DNA 2: TGGTGGCTACGACGGGATT
B2: ACCCUAU (DNA:RNA)
RNA: B1 RNA with A26C, G28C, G29U, U30A, C31U
DNA 1: CAATCTGAATTCCGGTCTCCC
DNA 2: TGGTGGCTACGACGGGATT
B3: CACAGAC (DNA:RNA)
RNA: B1 RNA with A25C, G28A, U30A
DNA 1: CAATCTGAATTCCGGTCTCCC
DNA 2: TGGTGGCTACGACGGGATT
B4: UAGUAUG (DNA:RNA)
RNA: B1 RNA with A25U, C27G, G28U, G29A, C31G
DNA 1: CAATCTGAATTCCGGTCTCCC
DNA 2: TGGTGGCTACGACGGGATT
B5: AAUGGAU (DNA:RNA)
RNA: B1 RNA with C27U, U30A, C31U
DNA 1: CAATCTGAATTCCGGTCTCCC
DNA 2: TGGTGGCTACGACGGGATT
B6: UUGUCUG (DNA:RNA)
RNA: B1 RNA with A25U, A26U, C27G, G28U, G29C, C31G
DNA 1: CAATCTGAATTCCGGTCTCCC
DNA 2: TGGTGGCTACGACGGGATT
B7: UUAUAUA (DNA:RNA)
RNA: B1 RNA with A25U, A26U, C27A, G28U, G29A, C31A
DNA 1: CAATCTGAATTCCGGTCTCCC
DNA 2: TGGTGGCTACGACGGGATT
B8: GCUAUGA (DNA:RNA)
RNA: GGGAGACCGGAAUUCAGAUUGUCCGCUAUGAUUAAAUCCCGUCGUAGCCACCA
DNA 1: CAATCTGAATTCCGGTCTCCC
DNA 2: TGGTGGCTACGACGGGATT
B9: GAUCCUA (DNA:RNA)
RNA: B8 RNA with C26A, A28C, U29C, G30U
DNA 1: CAATCTGAATTCCGGTCTCCC
DNA 2: TGGTGGCTACGACGGGATT
B10: GAUCCUU (DNA:RNA)
RNA: B1 RNA with A25G, C27U, G28C, G29C, C31U
DNA 1: CAATCTGAATTCCGGTCTCCC
DNA 2: TGGTGGCTACGACGGGATT
B11: CCCGAAG (DNA:RNA)
RNA: B1 RNA with A25C, A26C, G29A, U30A, C31G
DNA 1: CAATCTGAATTCCGGTCTCCC
DNA 2: TGGTGGCTACGACGGGATT
B12: UGUUUCC (DNA:RNA)
RNA: B8 RNA with G25U, C26G, A28U, G30C, A31C
DNA 1: CAATCTGAATTCCGGTCTCCC
DNA 2: TGGTGGCTACGACGGGATT
B13: CUGGGGC (DNA:RNA)
RNA: B1 RNA with A25C, A26U, C27G, U30G
DNA 1: CAATCTGAATTCCGGTCTCCC
DNA 2: TGGTGGCTACGACGGGATT
B14: UCUUACU (DNA:RNA)
RNA: B8 RNA with G25U, A28U, U29A, G30C, A31U
DNA 1: CAATCTGAATTCCGGTCTCCC
DNA 2: TGGTGGCTACGACGGGATT
B15: ACGGUCU (DNA:RNA)
RNA: B1 RNA with A26C, C27G, G29U, U30C, C31U
DNA 1: CAATCTGAATTCCGGTCTCCC
DNA 2: TGGTGGCTACGACGGGATT
B16: AUCGAUG (DNA:RNA)
RNA: B1 RNA with A26U, G29A, C31G
DNA 1: CAATCTGAATTCCGGTCTCCC
DNA 2: TGGTGGCTACGACGGGATT
B17: UAUUGAC (DNA:RNA)
RNA: B1 RNA with A25U, C27U, G28U, U30A
DNA 1: CAATCTGAATTCCGGTCTCCC
DNA 2: TGGTGGCTACGACGGGATT
B18: UCGUUCC (DNA:RNA)
RNA: B8 RNA with G25U, U27G, A28U, G30C, A31C
DNA 1: CAATCTGAATTCCGGTCTCCC
DNA 2: TGGTGGCTACGACGGGATT
B19: CGGCAUC (DNA:RNA)
RNA: B1 RNA with A25C, A26G, C27G, G28C, G29A
DNA 1: CAATCTGAATTCCGGTCTCCC
DNA 2: TGGTGGCTACGACGGGATT
B20: UAACCAU (DNA:RNA)
RNA: B1 RNA with A25U, C27A, G28C, G29C, U30A, C31U
DNA 1: CAATCTGAATTCCGGTCTCCC
DNA 2: TGGTGGCTACGACGGGATT
B21: GUUACAG (DNA:RNA)
RNA: B8 RNA with C26U, U29C, G30A, A31G
DNA 1: CAATCTGAATTCCGGTCTCCC
DNA 2: TGGTGGCTACGACGGGATT
B22: UAUUAAU (DNA:RNA)
RNA: B1 RNA with A25U, C27U, G28U, G29A, U30A, C31U
DNA 1: CAATCTGAATTCCGGTCTCCC
DNA 2: TGGTGGCTACGACGGGATT
B23: UGGUAUA (DNA:RNA)
RNA: B1 RNA with A25U, A26G, C27G, G28U, G29A, C31A
DNA 1: CAATCTGAATTCCGGTCTCCC
DNA 2: TGGTGGCTACGACGGGATT
B24: UGCAUAU (DNA:RNA)
RNA: B8 RNA with G25U, C26G, U27C, G30A, A31U
DNA 1: CAATCTGAATTCCGGTCTCCC
DNA 2: TGGTGGCTACGACGGGATT
B25: AACCUAU (DNA:RNA)
RNA: B1 RNA with G28C, G29U, U30A, C31U
DNA 1: CAATCTGAATTCCGGTCTCCC
DNA 2: TGGTGGCTACGACGGGATT
B26: ACCCUCU (DNA:RNA)
RNA: B1 RNA with A26C, G28C, G29U, U30C, C31U
DNA 1: CAATCTGAATTCCGGTCTCCC
DNA 2: TGGTGGCTACGACGGGATT
B27: GUGUAGU (DNA:RNA)
RNA: B8 RNA with C26U, U27G, A28U, U29A, A31U
DNA 1: CAATCTGAATTCCGGTCTCCC
DNA 2: TGGTGGCTACGACGGGATT
B28: GCAGCUU (DNA:RNA)
RNA: B1 RNA with A25G, A26C, C27A, G29C, C31U
DNA 1: CAATCTGAATTCCGGTCTCCC
DNA 2: TGGTGGCTACGACGGGATT
B29: UAACAGC (DNA:RNA)
RNA: B1 RNA with A25U, C27A, G28C, G29A, U30G
DNA 1: CAATCTGAATTCCGGTCTCCC
DNA 2: TGGTGGCTACGACGGGATT
B30: UAGAAGA (DNA:RNA)
RNA: B8 RNA with G25U, C26A, U27G, U29A
DNA 1: CAATCTGAATTCCGGTCTCCC
DNA 2: TGGTGGCTACGACGGGATT
B31: ACGCGAA (DNA:RNA)
RNA: B1 RNA with A26C, C27G, G28C, U30A, C31A
DNA 1: CAATCTGAATTCCGGTCTCCC
DNA 2: TGGTGGCTACGACGGGATT

The target of this experiment is T1, RBFOX1 RRM RbFoxmut (Fox-RRM*) (Homo sapiens, UniProt Q9NWB1 109-208, R118D;E147R;N151S;E152T).
T1 sequence: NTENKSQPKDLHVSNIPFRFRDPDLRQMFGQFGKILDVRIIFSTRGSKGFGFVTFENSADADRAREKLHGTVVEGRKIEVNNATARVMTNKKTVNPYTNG
In words: EMSA; HiTS-Eq, 1 nM pool, 10 min; buffer printed only for the single-RNA assays: 10 mM Tris pH 7.5, 150 mM NaCl, 3.4 mM EDTA, 0.001% NP-40, 30 C. To be noted: tags: His6 N-terminal (pET28a); label: 5' 32P. The essentials:
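These values rest on relative association constants, computed from read-count changes of each RNA species versus the control reaction and normalised to the cognate motif. Reads came from free RNA recovered by 8% native PAGE after purified RbFox RRM (wild type or mutant) at increasing concentrations was equilibrated for 10 min in 50 µL with 1 nM of a 5′-radiolabelled pool with 7 randomized nucleotides and DNA-annealed flanks.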
Background: Mobility shift assays separate free from complexed probe on a gel.
As for B1, the binding signal is 0.107 KA relative to UGCAUGU.
As for B2, the binding signal was 0.0943 KA relative to UGCAUGU.
B3: the binding signal was 0.0649 KA relative to UGCAUGU.
Next, B4: 0.674 KA relative to UGCAUGU.
Next, B5: 0.0811 KA relative to UGCAUGU.
The result for B6 reads 0.218 KA relative to UGCAUGU; that for B7, 0.145 KA relative to UGCAUGU.
Consider B8, for which the binding signal was 0.186 KA relative to UGCAUGU.
For the molecule B9, the binding signal was 0.0785 KA relative to UGCAUGU.
The result for B10 reads 0.0685 KA relative to UGCAUGU.
For the molecule B11, the binding signal was 0.0953 KA relative to UGCAUGU.
The result for B12 reads 0.118 KA relative to UGCAUGU; that for B13, 0.0886 KA relative to UGCAUGU; that for B14, 0.0989 KA relative to UGCAUGU.
Next, B15: 0.0673 KA relative to UGCAUGU; B16: 0.112 KA relative to UGCAUGU.
Regarding B17, the binding signal is 0.0844 KA relative to UGCAUGU.
The result for B18 reads 0.0738 KA relative to UGCAUGU; that for B19, 0.261 KA relative to UGCAUGU.
For B20, the binding signal is 0.0684 KA relative to UGCAUGU.
Regarding B21, the binding signal was 0.114 KA relative to UGCAUGU.
Next, B22: 0.0483 KA relative to UGCAUGU.
Next, B23: 0.157 KA relative to UGCAUGU.
Next, B24: 0.178 KA relative to UGCAUGU.
In the case of B25, the binding signal is 0.101 KA relative to UGCAUGU.
For the molecule B26, the binding signal is 0.0517 KA relative to UGCAUGU.
For B27, the binding signal was 0.177 KA relative to UGCAUGU.
As to B28, the binding signal was 0.0815 KA relative to UGCAUGU.
Next, B29: 0.0657 KA relative to UGCAUGU; B30: 0.0717 KA relative to UGCAUGU.
On to B31, for which the binding signal was 0.138 KA relative to UGCAUGU.
